# Measurements: the RNAGym collection of RNA variant scans (doi:10.1093/nar/gkz1192)
# The source gives no read counts; variants with many changes may rest on few reads.
# B1: CPEB3 Ribozyme (parent)
# chain: UAACAGGGGGCCACAGCAGAAGCGUUCACGUCGCAGCCCCUGUCAGAUUCUGGUGAAUCUGCGAAUUCUGCUGUAUAUCUC
# Variants of: B1
# Assay: self-cleavage, relative activity (ratio to wild type); higher = more cleavage; in vitro, sequencing
# Procedure, shortened: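 Relative activity compares each variant's cleaved/total read fraction with that of the unmutated ribozyme. To get these fractions, barcoded CPEB3 ribozyme libraries from rounds of error-prone PCR were transcribed with T7 RNA polymerase for 5 hours at 37°C and then given 15 min of DNase I treatment before EDTA was added. The RNAs were reverse transcribed with template switching and sequenced on Illumina, and DNA sequencing linked barcodes to variants. A minimum of 5 reads applied, and three batches were averaged.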
row,Variant,self-cleavage
1,A15G U26C C29U,0.31
2,A15G U26C C32U A35G,0.13
3,A15G U26C G52C U58C U60C U67C U72A,0.17
4,A15G U26C G52C U67C U74A,0.11
5,A15G U26C G53U A56G,0.4
6,A15G U26C U31C U43A,0.39
7,A15G U26C U41G A45G G52U A64U,0.07
8,A15G U26C U49C U51C,0.12
9,A15G U31A A47G U72C,0.71
10,A15G U31A A57G,0.23
11,A15G U31A A64G,0.66
12,A15G U31A U43C U80C,0.31
13,A15G U31A U48C U80A,0.15
14,A15G U31A U54C U60C,0.34
15,A15G U31A U58C C71G G73A A75G,0.08
16,A15G U31C A45G U69A,0.17
17,A15G U31C A57G C62U,0.34
18,A15G U31C C38U A45G,0.09
19,A15G U31C C40U U41C U60A,0.43
20,A15G U31C U41C A64G U66C,0.19
21,A15G U31C U41C U48A A64U U80C,0.06
22,A15G U31C U51C A57G,0.23
23,A15G U31G U43C U74C,0.73
24,A15G U31G U54A U69C A77C U78A,0.19

row,Variant,self-cleavage
1,A15G U41A A56G U58C U69C,0.23
2,A15G U41A A56U A64G,0.17
3,A15G U41A G46A G52A,0.06
4,A15G U41A U48A C62U U66C U76C,0.06
5,A15G U41A U51C,0.09
6,A15G U41A U54A U72C,0.06
7,A15G U41A U67C,0.19
8,A15G U41C A45G,0.42
9,A15G U41C A56G A64G U69A,0.21
10,A15G U41C G46A U49C U67C,0.08
11,A15G U41C G52U A57U U60C,0.12
12,A15G U41C U49C A56U U72C,0.24
13,A15G U41C U49C U69C,0.12
14,A15G U41C U51G,0.58
15,A15G U41C U54C A75U A77G,0.94
16,A15G U41C U66C U69C U76C,0.37
17,A15G U41C U76C,0.88
18,A15G U41G A57G,0.39
19,A15G U43A A45C C62U U78A,0.17
20,A15G U43A A45U U51A A65G,0.11
21,A15G U43A A64U,0.47
22,A15G U43A G53U U72C A75G,1.3
23,A15G U43A U49C,0.38
24,A15G U43A U49C A57U U67C,0.1

row,Variant,self-cleavage
1,A15G U43A U51A A65G,0.3
2,A15G U43C A45U U80C,0.14
3,A15G U43C A56C G70C,0.02
4,A15G U43C U51C,0.19
5,A15G U43C U66A,0.23
6,A15G U43C U67A,0.19
7,A15G U43G A56U,0.06
8,A15G U43G U58A U74C,0.22
9,A15G U43G U76C,0.33
10,A15G U43G U78A,0.32
11,A15G U48A U49C U58G,0.18
12,A15G U48C A57G U60C U66C,0.3
13,A15G U48C U69A,0.14
14,A15G U48G U69A,0.2
15,A15G U49A U54A U76G,0.48
16,A15G U49A U54C A56U,0.83
17,A15G U49C U54G C62U U66C,0.09
18,A15G U54A C62U U67G,0.24
19,A15G U54A U69C U78A,0.25
20,A15G U54C A64G,0.13
21,A15G U54C U58C,0.42
22,A15G U54C U60A A64U,0.15
23,A15G U54C U60C,0.49
24,A15G U54C U80C,0.95

row,Variant,self-cleavage
1,A15G U58C A77G,0.41
2,A15G U60A U67A,0.15
3,A15G U60A U67C,0.26
4,A15G U60A U69A U78C,0.16
5,A15G U60A U80C,0.34
6,A15G U60C A64G,0.19
7,A15G U60G U69C,0.15
8,A15G U66C U69A C71U,0.17
9,A15G U67A U80C,0.24
10,A15U A18C A45U A65G U80C,0.03
11,A15U A18C U26A A64G U74A,0.16
12,A15U A18C U43C A45U U49C U74A,0.07
13,A15U A18G A20G C34U A65G U67A,0.06
14,A15U A18G A20G U54C,0.32
15,A15U A18G A20U A64G,0.21
16,A15U A18G A21G U60C C62G U72C,0.11
17,A15U A18G A35G,0.92
18,A15U A18G A47G U51C U54C,0.62
19,A15U A18G A57G,0.28
20,A15U A18G C32A G33A A57G A64G,0.13
21,A15U A18G C37A A47U U49C U54C U72A,0.07
22,A15U A18G G22C,0.27
23,A15U A18G G55U U78C,0.2
24,A15U A18G U25C,0.4

row,Variant,self-cleavage
1,A15U A18G U25C A57G U60A A77G U78C,0.08
2,A15U A18G U25C A64G U67C,0.12
3,A15U A18G U41A U48A,0.07
4,A15U A18G U76C A77U,0.43
5,A15U A18G U78C,0.15
6,A15U A18U A20G U25A A35G,0.08
7,A15U A18U A35U A56C U76C,0.2
8,A15U A18U A35U A64G,0.07
9,A15U A18U A47G U72C,0.13
10,A15U A18U G24C U72A,0.17
11,A15U A18U U25C A47G U51A A65G A75U,0.16
12,A15U A18U U26C U41A,0.07
13,A15U A18U U31A C32U C37G U54A A75G,0.14
14,A15U A18U U43C U48C U51C U72C,0.12
15,A15U A18U U67G U72C,0.36
16,A15U A20G A28G U80G,0.12
17,A15U A20G A64G U69A U78C,0.05
18,A15U A20G U25C C40U,0.23
19,A15U A20G U26A A35G A56U A65U U78C,0.26
20,A15U A20G U41C U49A G61C C62U U66C,0.06
21,A15U A20G U43A U60A G73U,0.22
22,A15U A20G U43C U58C G73A C79U C81U,0.05
23,A15U A20G U66C U69C,0.12
24,A15U A20U A56G A57G A64U U72A U80C,0.04

row,Variant,self-cleavage
1,A15U A20U U31A G33A U54C U69C U80A,0.07
2,A15U A20U U54A,0.19
3,A15U A20U U60C U78C,0.2
4,A15U A21C U41C A56G U60C,0.08
5,A15U A21G A35U U58C,0.1
6,A15U A21G A47G U48C U80C,0.06
7,A15U A21G A56G C71U,0.35
8,A15U A21G C39U U51C U60A,0.47
9,A15U A21G G42A U43A A45G A47G A56U,0.03
10,A15U A21G U25C U72G,0.05
11,A15U A21G U31A C38A U60A,0.2
12,A15U A21G U41A U43C U69A,0.53
13,A15U A21G U76C,0.22
14,A15U A21U C68G,0.14
15,A15U A21U G46U U80C,0.22
16,A15U A21U U54C U58C A65G,0.05
17,A15U A21U U80C,0.24
18,A15U A28C A57G G61C U66C,0.11
19,A15U A28C U80C,0.54
20,A15U A28G A47G U67C,0.09
21,A15U A28G A57G,0.2
22,A15U A28G C34U A45U A77G U78A,0.06
23,A15U A28G G36U A64U,0.09
24,A15U A28G U43A U74A,0.39

row,Variant,self-cleavage
1,A15U A28G U54A U58A U67C,0.08
2,A15U A28U U48C,0.43
3,A15U A35G A47G U48C U66A U74C,0.16
4,A15U A35G A47U U78A,1.25
5,A15U A35G A56G U72C,1.22
6,A15U A35G C40A U51C A64G,0.2
7,A15U A35G U41C U51A U67C A77G,0.79
8,A15U A35G U41C U80A,1.28
9,A15U A35G U67C,0.59
10,A15U A35G U72C,1.28
11,A15U A35U U43A G53A A56G A64U,0.12
12,A15U A45G A65G,0.04
13,A15U A45G U49A U72A,0.08
14,A15U A47G U54C C79A,0.79
15,A15U A56G U60C,0.14
16,A15U A56G U74G,0.39
17,A15U A56U A75U,0.53
18,A15U A57G A64G U72C,0.23
19,A15U A64C A77U,0.19
20,A15U A64G A77G,0.43
21,A15U A64G U67G,0.17
22,A15U A65U U67C U80C,0.15
23,A15U C17G A21U A28G A45G U74C,0.28
